Screen size: about 52,000 compounds; about 1,700 (3.3%) were called active. Cut-off read from the data, not from the text of the source: active = survival mostly below about 52% (no sharp cut-off); inactive = mostly above about 56%. This is one part of the list.
What follows are compounds tested on Wild type (assay: S. aureus survival, RN4220 and DeltatarO strains – OD600, teichoic acid synthesis inhibitors, primary screen (AID 463173)). Settings: S. aureus RN4220 wild type/DeltatarO growth, OD600, 18 h, hits give low values, screened at 18.75 µg/mL (by protocol).

| SMILES | survival |
| --- | --- |
| Cc1c(NS(=O)(=O)c2cccc(C(=O)O)c2)c(=O)n(-c2ccccc2)n1C | inactive: 80% |
| CC1=C(C(=O)OCc2ccc(C)cc2)C(c2c(Cl)cccc2Cl)CC(=O)N1 (stereo unspecified) | inactive: 85% |
| CS(=O)(=O)c1ncc(N(Cc2ccco2)Cc2ccco2)c(C(=O)Nc2ccccc2Br)n1 | inactive: 101% |
| Cc1ccc(-n2ncc(C(=O)NC3CCCC3)c2C2CCN(C(=O)OC(C)(C)C)CC2)c(C)c1 | inactive: 79% |
| CNc1nc(Oc2ccc(=O)n(C)n2)nc(N2CCOCC2)n1 | inactive: 72% |
| COc1cccc(Cn2nnc3c(=O)[nH]c(C4CCCN(C(=O)c5ccc(C)cc5)C4)nc32)c1 (stereo unspecified) | inactive: 109% |
| Cc1ccc(C)c(NS(=O)(=O)c2ccc3c4c(cccc24)C(=O)N3)c1 | inactive: 83% |
| COc1ccc(S(=O)(=O)N2CCCC(C(=O)N(Cc3cccs3)C3CC3)C2)cc1Cl (stereo unspecified) | inactive: 100% |
| CCn1nnnc1SCC(=O)NC1CCCC1 | inactive: 99% |
| Cc1ccc(-c2cc(-c3ccccc3)nc(N3CCCC3)n2)cc1 | inactive: 121% |
| Cn1c(SCC(=O)N2CCCc3ccccc32)ncc(C(=O)Nc2ccc(Cl)cc2)c1=O | inactive: 110% |
| CCOc1ccccc1-c1nc(=S)[nH][nH]1 | inactive: 110% |
| COc1cccc(CN(Cc2ccco2)c2cnc(S(C)(=O)=O)nc2C(=O)Nc2cccc(Cl)c2C)c1 | inactive: 86% |
| Cc1cc2cc(CN(Cc3ccco3)C(c3nnnn3C3CCCC3)C(C)C)c(=O)[nH]c2cc1C (stereo unspecified) | inactive: 120% |
| CCc1nc2nc(C)cc(Nc3ccc(OC)cc3)n2n1 | inactive: 69% |
| CN(C1CCCCC1)S(=O)(=O)c1ccc2c(c1)c(=O)c(C(=O)NCCc1ccc(Cl)cc1)cn2C | inactive: 77% |
| CSCCC(NS(=O)(=O)c1ccc2c(c1)oc(=O)n2C)C(=O)NCCc1ccc(C)cc1 (stereo unspecified) | inactive: 73% |
| Cc1ccc(-c2nnc(Nc3cccc(Cl)c3)c3ccccc23)cc1S(=O)(=O)NCC1CCCO1 (stereo unspecified) | inactive: 131% |
| CCS(=O)(=O)N1CCC(C(=O)NCCC(C)C)CC1 | inactive: 72% |

| SMILES | survival |
| --- | --- |
| CC(C)NC(=O)Cn1nnc(-c2ccc(Cl)cc2)n1 | inactive: 95% |
| COc1cccc(OCCCCn2c(-c3ccc(Cl)cc3)nc3ccccc3c2=O)c1 | inactive: 30% |
| O=S(=O)(NCCSc1nnnn1-c1ccccc1)c1ccc(F)cc1 | inactive: 76% |
| Cc1ccc(-c2onc(C)c2C)cc1S(=O)(=O)NCc1ccco1 | inactive: 112% |
| Cc1ccc(S(=O)(=O)c2cnc(SCC(=O)Nc3ccc4c(c3)OCCO4)[nH]c2=O)cc1 | inactive: 86% |
| CCOc1cc(C(=O)Nc2cccc(-c3nc4ccccc4o3)c2)cc(OCC)c1OCC | inactive: 79% |
| CC(=O)Nc1ccc(S(=O)(=O)NC2(C(F)(F)F)NC(=O)N(c3ccc(C)cc3)C2=O)cc1 (stereo unspecified) | inactive: 74% |
| O=C(c1cccc([N+](=O)[O-])c1)N1c2ncnn2C2(CCCCC2)[C@@H]2CCCC[C@@H]21 | inactive: 80% |
| COC(=O)c1ccccc1NC(=O)Cn1cc(S(=O)(=O)Cc2ccccc2F)c2ccccc21 | inactive: 110% |
| CCOC(=O)c1c(C)oc2nc(C)nc(NCc3ccccc3Cl)c12 | inactive: 73% |
| CCCCc1ccc(-n2nc3cc(C)c(NC(=O)Cc4ccccc4)cc3n2)cc1 | inactive: 98% |
| Cc1ccc2cccc(NC(=O)COc3ccccc3[N+](=O)[O-])c2n1 | inactive: 99% |
| Cc1cccc(OCc2ccc(-c3nc(C#N)c(NCCN(C)C)o3)o2)c1 | inactive: 120% |
| Cc1ccc(S(=O)(=O)c2cnc(SCC(=O)Nc3cc(C)cc(C)c3)nc2N)cc1 | inactive: 99% |
| O=C(NCCNCc1ccccc1)c1ccco1 | inactive: 115% |
| Cc1cc(Nc2ccc(C)c(C)c2)n2cnnc2n1 | inactive: 96% |
| COc1ccc2c(c1)c1c(c(=O)n(-c3ccccc3C)c(=O)n1CC(=O)NCc1ccc(C)cc1)n2C | inactive: 84% |
| CCCN(CCC)C(=O)CSc1nnc2cc(C)c3cc(C)cc(C)c3n12 | inactive: 79% |
| CCN(CC)c1ccc(NC(=O)CSc2nnc(C)c(=O)[nH]2)cc1 | inactive: 90% |

| SMILES | survival |
| --- | --- |
| CCOC(=O)c1c(NC(=O)COc2ccccc2F)sc2c1CCCC2 | inactive: 76% |
| O=C(CN1CCCCCCC1)Nc1ccc2c(c1)OCO2 | inactive: 118% |
| O=C(Nc1cc(Cl)cc(Cl)c1)c1ccc(F)c(S(=O)(=O)NC2CCCC2)c1 | inactive: 80% |
| Cc1cccc(CN2C(=O)c3ccccc3Sc3ccc(C(=O)N4CCCC4)cc32)c1 | inactive: 88% |
| COC(=O)c1c(-c2cccs2)csc1NC(=O)c1ccc(Cl)cc1 | inactive: 73% |
| COCCN1C(=O)c2[nH]nc(-c3ccccc3O)c2C1c1ccc(OCc2ccccc2)c(OC)c1 (stereo unspecified) | inactive: 43% |
| CCc1ccc(N(CC)C(=O)c2ccc3c(=O)n4c(nc3c2)CCCCC4)cc1 | inactive: 75% |
| COC(=O)c1cc(S(=O)(=O)NCC2CCN(Cc3cc(C)ccc3C)CC2)c[nH]1 | inactive: 72% |
| COc1ccc(-c2cn3c(n2)sc2cc(C(=O)NCc4ccccc4OC)ccc23)cc1 | inactive: 81% |
| COc1ccccc1Nc1nn2c(=O)c3ccc(C(=O)NCc4cccs4)cc3nc2s1 | inactive: 83% |
| Cc1ccc2c(=O)c(C(=O)c3ccc(F)cc3)cn(CC(=O)NCc3ccccc3)c2n1 | inactive: 84% |
| COc1cccc(Cn2c(CNC(=O)C(C)C)nc3cccnc32)c1 | inactive: 80% |
| COc1ccc(N2CCN(C(=O)c3ccc(C)c(NC(=O)c4nsc5ccccc45)c3)CC2)cc1 | inactive: 64% |
| COc1ccc(OC)c(S(=O)(=O)NCCc2sc(-c3ccc(C)cc3)nc2C)c1 | inactive: 87% |
| CCOC(=O)c1c(NC(=O)/C=C/c2ccccc2)sc2c1CCCC2 | inactive: 73% |
| COc1ccc(C(=O)Nc2ccc(-c3nc4ncccc4o3)cc2)cc1 | inactive: 76% |
| CC(C)(C)OC(=O)N1CCC(c2c(C(=O)NCc3ccccn3)cnn2-c2ccccc2)CC1 | inactive: 73% |
| Cc1ccc(-c2nc3ccccc3[nH]2)cc1NC(=O)COc1cccc(C)c1C | inactive: 73% |

From PubChem BioAssay AID463173 (ICCB-Longwood Screening Facility, Harvard Medical School, 2010)
